From PMC4336329 (PLoS ONE, 2015)
Screen size: about 310,000 compounds; about 14,000 (4.5%) showed an effect of 50% or more. Effects have a minus sign here. Some of the results follow.

These molecules were tested against human ether-à-go-go-related gene (hERG) potassium channel (human, UniProt Q12809) (assay: primary screen, population patch clamp on CHO cells stably expressing hERG).
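Also: peak tail current of the secondary pulse compared with the same well before compound.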

Chain of human ether-à-go-go-related gene (hERG) potassium channel (Q12809 whole entry, looked up): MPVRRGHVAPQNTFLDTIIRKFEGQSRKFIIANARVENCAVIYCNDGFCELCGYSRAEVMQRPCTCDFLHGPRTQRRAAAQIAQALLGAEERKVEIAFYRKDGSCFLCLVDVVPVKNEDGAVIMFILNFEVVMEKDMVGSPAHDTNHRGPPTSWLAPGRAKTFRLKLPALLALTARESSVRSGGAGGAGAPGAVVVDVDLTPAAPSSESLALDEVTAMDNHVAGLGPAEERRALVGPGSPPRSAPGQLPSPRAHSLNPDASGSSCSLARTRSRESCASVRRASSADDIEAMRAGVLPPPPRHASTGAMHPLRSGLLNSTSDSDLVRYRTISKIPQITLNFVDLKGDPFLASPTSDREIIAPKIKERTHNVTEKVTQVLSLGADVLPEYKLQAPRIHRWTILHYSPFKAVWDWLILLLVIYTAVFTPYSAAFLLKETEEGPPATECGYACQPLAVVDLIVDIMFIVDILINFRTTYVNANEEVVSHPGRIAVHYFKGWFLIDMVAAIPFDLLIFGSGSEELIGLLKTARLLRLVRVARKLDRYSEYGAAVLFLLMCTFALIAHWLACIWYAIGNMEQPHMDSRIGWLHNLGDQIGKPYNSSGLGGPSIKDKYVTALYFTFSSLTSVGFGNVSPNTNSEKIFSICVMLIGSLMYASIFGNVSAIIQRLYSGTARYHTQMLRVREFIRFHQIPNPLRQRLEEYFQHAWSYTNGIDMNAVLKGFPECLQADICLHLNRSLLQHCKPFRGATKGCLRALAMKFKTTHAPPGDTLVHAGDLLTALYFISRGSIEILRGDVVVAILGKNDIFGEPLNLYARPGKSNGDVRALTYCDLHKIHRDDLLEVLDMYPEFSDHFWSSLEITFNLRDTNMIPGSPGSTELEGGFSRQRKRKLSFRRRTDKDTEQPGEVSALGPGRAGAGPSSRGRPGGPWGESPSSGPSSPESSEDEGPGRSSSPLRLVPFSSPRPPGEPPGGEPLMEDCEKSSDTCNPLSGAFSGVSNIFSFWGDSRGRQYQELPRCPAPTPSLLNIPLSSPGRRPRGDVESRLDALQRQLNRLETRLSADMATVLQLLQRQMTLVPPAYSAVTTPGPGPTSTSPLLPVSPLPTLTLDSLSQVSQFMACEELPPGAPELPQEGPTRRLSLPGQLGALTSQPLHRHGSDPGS

SMILES	hERG current change (%, negative = inhibition) at 10uM [%]
CCn1cc(C(=O)N2CCOCC2)c2ccccc21	5.41
CC1CCCN(c2nc3c(c(=O)n(C)c(=O)n3C)n2CCSc2nc3ccccc3o2)C1 (stereo not shown)	-6.73
CC(=O)c1cccc(N2C(=NC(=O)C(C)C)SC3CS(=O)(=O)CC32)c1 (stereo not shown)	12.4
COC(=O)c1ccc(N2CCN(C(C)=O)CC2)c(NC(=O)COc2ccccc2C)c1	-17.3
CC(C)(C)NC(=O)CN(C(=O)Cn1nnc(-c2ccccc2F)n1)c1cccc2c1CCCC2	-17.7
Cn1c(SCC(=O)Nc2cccc(S(=O)(=O)NC3=NCCCCC3)c2)nnc1-c1ccncc1	2.16
CCN(CC(=O)Nc1cc(Cl)ccc1C)C(=O)CCS(=O)(=O)c1ccc(C)cc1	-14.2
CCOc1ccc2ccccc2c1/C=N/NC(=O)CC1(C)OCCCO1	-4.84
NS(=O)(=O)c1cc(C(=O)OCC(=O)Nc2ccc(N3CCCCC3)cc2)ccc1Cl	5.39
CCN(CC)S(=O)(=O)c1cc(C(=O)c2nccn2C)ccc1Cl	-11.4
COc1ccccc1NC(=O)CSc1nnnn1-c1ccccc1F	0.354
COc1cccc(N=CC2=C(O)CC(C)(C)CC2=O)c1	-6.91
Cc1ccc(-n2c(=S)sc3c(=O)n(-c4ccccc4C)c(SCC(=O)O)nc32)cc1C	13.5
CNC(=O)Nc1nnc(C(C)(C)C)s1	15.3
CCCc1cc(=O)[nH]c(SCC(=O)c2cc(C)n(C(C)COC)c2C)n1 (stereo not shown)	-6.74
COc1cccc(N2CC(NS(=O)(=O)c3ccc(Cl)cc3)CC2=O)c1 (stereo not shown)	-6.53
CC#CC(=O)N1CCCC(C(=O)c2ccc(SC)cc2)C1 (stereo not shown)	-3.3
CC(CC12CC3CC(CC(C3)C1)C2)NCc1ccccc1O.Cl (stereo not shown)	-3.36
CC(=Nc1ccc2c(c1)CCC2)c1c(O)n(-c2ccccc2)c(=O)[nH]c1=O	14
COc1cc(=O)[nH]c(=O)n1C(=O)Cc1ccccc1	8.18
NCC(c1ccccc1Cl)c1c[nH]c2ccccc12 (stereo not shown)	12.8
O=C(CCn1c(=O)oc2ccccc21)Nc1nccs1	4.95

SMILES	hERG current change (%, negative = inhibition) at 10uM [%]
S=C(NCCC(c1ccccc1)c1ccccc1)Nc1ccc(Cl)cc1	4.29
COc1cc(OC)cc(C(=O)NCC(=O)OCC(=O)N2CCc3ccccc32)c1	-2.71
CCCNc1nc(C)c(C(C)=O)cc1C#N	18.6
CCN(CC)S(=O)(=O)c1ccc(NC2c3ncccc3C(=O)N2Cc2ccccc2)cc1 (stereo not shown)	-41
Cc1ccccc1Nc1cc2ccccc2c(=O)[nH]1	-17.9
C=CCn1c(C)c(C(C)=O)c(N2CCCC2)nc1=S	9.64
CCOC(=O)N1CCN(CCC(=O)Nc2cc(C)ccc2C)CC1	5.35
O=S(=O)(NCC1CCCO1)c1ccc(S(=O)(=O)N(Cc2ccccc2F)C2CCCCC2)cc1 (stereo not shown)	0.619
CCn1c(=O)c(C(=O)CN2CCOCC2)c(N)n(Cc2ccccc2)c1=O	-19
O=C(CN(Cc1ccco1)Cc1cccs1)N1CCN(S(=O)(=O)c2cccc(F)c2)CC1	-48.7
Cc1cc(C)c(S(C)(=O)=O)c(Sc2ccc(Cl)cc2)n1	17.2
COc1ccc(/C=N/N=C/c2ccc(OC)c(O)c2)cc1O	23.2
O=C(c1cc(COc2c(F)cccc2F)on1)N1CCC(c2ccccc2F)C1 (stereo not shown)	20.4
Cc1c(C(=O)C(=O)N2CCCc3ccccc32)c2ccccc2n1C	-5.08
O=C(Nc1cccnc1)c1cc2c(ccc3ccccc32)o1	1.08
O=C(CCn1ccc2cc(S(=O)(=O)N3CCCC3)ccc21)NCCc1ccccc1	-16.9
CC(=O)c1cccc(NC(=O)C2(c3ccccc3)CC2(Cl)Cl)c1 (stereo not shown)	-6.27
CCO[C@@H]1OC(C(=O)NC2CC2)=C[C@H](c2ccccc2)[C@H]1CCCO	8.58
Cc1cccc(C)c1NC(=O)CCCN1CC(C)OC(C)C1 (stereo not shown)	4.1
C#CCOCCOCCOCCNc1nc(N2CCOCC2)nc(N2CCN(C(=O)[C@H](Cc3ccc(O)cc3)n3cc([C@@H](N)CC(C)C)nn3)CC2)n1.Cl	10.7
COc1ccc(Cc2nnc(SC(C)C(=O)Nc3ccc(F)cc3Cl)o2)cc1 (stereo not shown)	-2.31
O=C(CS(=O)(=O)Cc1ccccc1)N1CCN(c2cccc(C(F)(F)F)c2)CC1	-27.7

SMILES	hERG current change (%, negative = inhibition) at 10uM [%]
O=C(NCCCn1ccnc1)Nc1ccc(Cl)c(Cl)c1	-36.3
Cc1cc(C)c2c(N)c(-c3nc4ccccc4[nH]3)sc2n1	-2.46
O=C(O)c1ccccc1C(=O)c1ccc(Cl)cc1	8.46
NC(=O)c1cnn2c1NC(c1ccc(F)cc1)CC2C(F)(F)F (stereo not shown)	-22.7
Cc1occc1C(=O)N1CCN(c2ccc(Cl)cc2)CC1	-4.41
CCOc1ccc(NC(=O)CNC(=O)c2cn(-c3ccccc3OC)c(=O)c3ccccc23)cc1	-9.87
C=CCc1ccccc1OCC(CN1CCCCC1)OC(C)=O.Cl (stereo not shown)	-30.6
Cc1cccc(OCc2nn[nH]n2)c1C	4.8
O=C(Nc1ccon1)c1ccc(Br)s1	-9.89
Cn1c(O)c(N=Nc2cccc(S(=O)(=O)N3CCOCC3)c2)c(=O)n(C)c1=O	2.24
COc1cccc(N=C2CC(C)(C)CC(=O)/C2=C(/O)c2ccccc2)c1	-30.1
Nc1ccc(-c2nnc(-c3ccccc3)o2)cc1	-0.0392
CCN(C(=O)c1cccc(Br)c1)c1ccccc1	9.79
Cc1occc1-c1nnc(SCC(=O)NC2CCCC2)n1C	15.5
C[C@@H]1C(NC(=O)c2ccccc2)CC2CC1C2(C)C (stereo partly shown)	6.83
CCn1c(C)nc2cc(C(=O)NNC(=S)NC(=O)c3ccc(OC)cc3)ccc21	2.55
O=S(=O)(c1ccc2c(c1)OCCO2)N1CCN(c2ncnc3sccc23)CC1	-34.5
Cc1c(C(=O)NCCN(C)C)oc2ccc(S(=O)(=O)N3CCCC3)cc12	13
Cc1ccc(C)c(NC2=C(Cl)C(=O)OC2OC(C)C)c1 (stereo not shown)	16.2
COc1ccc(S(=O)(=O)N(CCN2CCOCC2)Cc2cc(OC)ccc2OC)cc1	-10.7
O=C(C1CCN(S(=O)(=O)N2CCOCC2)CC1)N1CCN(Cc2ccccc2)CC1	-9.22
O=S(=O)(NCc1ccccc1)c1ccc2c(c1)OCCO2	-8.08

SMILES	hERG current change (%, negative = inhibition) at 10uM [%]
C=CCn1c(SCC(=O)Nc2ccccc2)nc2scc(-c3cccs3)c2c1=O	8.69
Cc1ccc(C(O)(c2ccc(C)c(C)c2)C2CN3CCC2CC3)cc1C.Cl (stereo not shown)	-67.6
O=C(CC(Cc1ccccc1)c1ccco1)NCc1ccco1 (stereo not shown)	-3.67
COc1cc(F)ccc1S(=O)(=O)NCc1cccnc1	-2.98
Cc1cccc(Nc2nc(N)c([N+](=O)[O-])c(N3CCC(C)CC3)n2)c1	-15.7
Cc1ccc(NC(=O)c2ccc(N3CCOCC3)c([N+](=O)[O-])c2)cc1S(=O)(=O)N1CCOCC1	-27.9
CC(=O)Nc1ccc(CN2CCN(CC=C(C)C)C(CCO)C2)cc1 (stereo not shown)	8.81
C=CCNC(=O)CSc1nc2sccc2c(=O)n1-c1ccccc1	1.59
O=[N+]([O-])c1ccc(Cl)c(C[n+]2cccc3ccccc32)c1.[Br-]	11.5
CCN1/C(=C/C=C/c2sc3ccccc3[n+]2CC)Sc2ccccc21.[I-]	-73.8
COc1ccc(C)cc1S(=O)(=O)Nc1cc2c3c(c1)C(C)C(=O)N3CCC2 (stereo not shown)	3.78
Cc1ccc(COC(=O)Cc2coc3cc(O)ccc23)cc1	12.8
CC(Sc1nnc(-c2ccccc2Br)n1-c1cccc(C(F)(F)F)c1)C(N)=O (stereo not shown)	-7.08
COCOc1ccc(-c2cc(=O)c3c(OCOC)cc(OCOC)cc3o2)cc1	-41
COc1ccc(CNCCc2c(C)[nH]c3ccc(OC(F)(F)F)cc23)c(OC)c1.O=C(O)C(=O)O	-51
CS(=O)(=O)N(CC(=O)N1CCN(c2ccccc2)CC1)c1cccc(Br)c1	-19.2
CC1(C)Cc2ccccc2C(=NCC(=O)O)N1	17.6
CCOc1ncccc1C(=O)Nc1ccc(C(=O)Nc2ccc(OC)cc2)cc1	0.719
O=C(Nc1ccccc1OC(=O)c1ccc(Cl)cc1)c1ccc(Cl)cc1	6.58
COC(=O)c1cc(N=C(N)N=C(N)N)cc(C(=O)OC)c1	14.4
CCOC(=O)c1cnc(-n2nc(C)cc2C)nc1Oc1ccc(C#N)cc1	21.3
CN(C)S(=O)(=O)c1ccc(C(=O)Nc2nnc(SCc3cccc4ccccc34)s2)cc1	1.71
